Source: the supplement of paper PMC8948288
The sequences are guide strands of siRNAs; only the seed at positions 2 to 7 varies.

Key:
GL261 = test: cell viability relative to siNT1 (ATP content); H4 human neuroglioma and GL261 mouse glioma; higher = less toxic; conditions: siRNA concentration 25 nM; 96 h; mouse
H4 = test: as above; conditions: siRNA concentration 10 nM; 96 h; human
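Also: cells reverse transfected with siRNA duplexes via lipid reagent, ATP read by luminescence, triplicate wells, values scaled to mean viability with non-targeting control siNT1.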

Sequence | cell viability (GL261) [%] | cell viability (H4) [%]
UUGUGUUACAUGUAAACCA | 25.5 | 71.9
UUGUUAAACAUGUAAACCA | 46.7 | 83.7
UUGUUACACAUGUAAACCA | 55.9 | 57.1
UUGUUAGACAUGUAAACCA | 26.1 | 60.8
UUGUUAUACAUGUAAACCA | 26.6 | 47.9
UUGUUCAACAUGUAAACCA | 51.5 | 57.9
UUGUUCCACAUGUAAACCA | 24.7 | 10.8
UUGUUCGACAUGUAAACCA | 45.1 | 55.7
UUGUUCUACAUGUAAACCA | 23.2 | 39.4
UUGUUGAACAUGUAAACCA | 33.5 | 54.3
UUGUUGCACAUGUAAACCA | 43.7 | 67.4
UUGUUGGACAUGUAAACCA | 27.7 | 55.6
UUGUUGUACAUGUAAACCA | 40 | 45.7
UUGUUUAACAUGUAAACCA | 50.8 | 92.2
UUGUUUCACAUGUAAACCA | 32.9 | 56.6
UUGUUUGACAUGUAAACCA | 14.3 | 79.5
UUGUUUUACAUGUAAACCA | 77 | 67.9
UUUAAAAACAUGUAAACCA | 63.6 | 82.1
UUUAAACACAUGUAAACCA | 58.2 | 105
UUUAAAGACAUGUAAACCA | 59.3 | 110
UUUAAAUACAUGUAAACCA | 75.1 | 77.4
UUUAACAACAUGUAAACCA | 66.2 | 111
UUUAACCACAUGUAAACCA | 34.4 | 53.2

Sequence | cell viability (GL261) [%] | cell viability (H4) [%]
UUUAACGACAUGUAAACCA | 64 | 112
UUUAACUACAUGUAAACCA | 56.6 | 62.4
UUUAAGAACAUGUAAACCA | 54.3 | 93.8
UUUAAGCACAUGUAAACCA | 34.8 | 63
UUUAAGGACAUGUAAACCA | 58.4 | 71.8
UUUAAGUACAUGUAAACCA | 37.3 | 26.1
UUUAAUAACAUGUAAACCA | 75.6 | 101
UUUAAUCACAUGUAAACCA | 57.7 | 99.3
UUUAAUGACAUGUAAACCA | 54.3 | 97.9
UUUAAUUACAUGUAAACCA | 59.7 | 120
UUUACAAACAUGUAAACCA | 52.9 | 101
UUUACACACAUGUAAACCA | 61.2 | 85.1
UUUACAGACAUGUAAACCA | 57.9 | 105
UUUACAUACAUGUAAACCA | 55.4 | 79.5
UUUACCAACAUGUAAACCA | 63.5 | 106
UUUACCCACAUGUAAACCA | 35.7 | 57.4
UUUACCGACAUGUAAACCA | 67.4 | 79.1
UUUACCUACAUGUAAACCA | 27.6 | 80.5
UUUACGAACAUGUAAACCA | 56.7 | 77.8
UUUACGCACAUGUAAACCA | 32.7 | 86.8
UUUACGGACAUGUAAACCA | 46.8 | 93
UUUACGUACAUGUAAACCA | 54.6 | 79.9
UUUACUAACAUGUAAACCA | 63.9 | 71.2

Sequence | cell viability (GL261) [%] | cell viability (H4) [%]
UUUACUCACAUGUAAACCA | 49.3 | 90.7
UUUACUGACAUGUAAACCA | 55 | 89.5
UUUACUUACAUGUAAACCA | 69.2 | 87.6
UUUAGAAACAUGUAAACCA | 64.9 | 118
UUUAGACACAUGUAAACCA | 45.3 | 68.6
UUUAGAGACAUGUAAACCA | 58.2 | 80.4
UUUAGAUACAUGUAAACCA | 65.7 | 104
UUUAGCAACAUGUAAACCA | 49.6 | 106
UUUAGCCACAUGUAAACCA | 28.9 | 51
UUUAGCGACAUGUAAACCA | 62.8 | 82.1
UUUAGCUACAUGUAAACCA | 15.1 | 78.2
UUUAGGAACAUGUAAACCA | 58.5 | 86.9
UUUAGGCACAUGUAAACCA | 13.4 | 66.3
UUUAGGGACAUGUAAACCA | 33.1 | 68.5
UUUAGGUACAUGUAAACCA | 49.9 | 96.3
UUUAGUAACAUGUAAACCA | 67 | 92
UUUAGUCACAUGUAAACCA | 37.6 | 58.4
UUUAGUGACAUGUAAACCA | 74.7 | 71.6
UUUAGUUACAUGUAAACCA | 64.3 | 105
UUUAUAAACAUGUAAACCA | 63.5 | 109
UUUAUACACAUGUAAACCA | 54.8 | 76.6
UUUAUAGACAUGUAAACCA | 83.5 | 91.5
UUUAUAUACAUGUAAACCA | 61 | 106

Sequence | cell viability (GL261) [%] | cell viability (H4) [%]
UUUAUCAACAUGUAAACCA | 68.7 | 86
UUUAUCCACAUGUAAACCA | 23.3 | 70.1
UUUAUCGACAUGUAAACCA | 71.7 | 86.4
UUUAUCUACAUGUAAACCA | 34.6 | 102
UUUAUGAACAUGUAAACCA | 61.8 | 114
UUUAUGCACAUGUAAACCA | 16.7 | 19.8
UUUAUGGACAUGUAAACCA | 38.7 | 82.8
UUUAUGUACAUGUAAACCA | 21.5 | 83.1
UUUAUUAACAUGUAAACCA | 55.4 | 105
UUUAUUCACAUGUAAACCA | 27.6 | 97.2
UUUAUUGACAUGUAAACCA | 64.9 | 105
UUUAUUUACAUGUAAACCA | 55.3 | 77.2
UUUCAAAACAUGUAAACCA | 44.1 | 95.6
UUUCAACACAUGUAAACCA | 35.7 | 88.1
UUUCAAGACAUGUAAACCA | 40.6 | 97.8
UUUCAAUACAUGUAAACCA | 47.4 | 98.3
UUUCACAACAUGUAAACCA | 22.1 | 100
UUUCACCACAUGUAAACCA | 26.8 | 27
UUUCACGACAUGUAAACCA | 31.3 | 104
UUUCACUACAUGUAAACCA | 17.2 | 65.8
UUUCAGAACAUGUAAACCA | 43.4 | 97.2
